{"source": "paper PMC4336329", "about": "(PLoS ONE, 2015)", "note": "The whole screen tested about 310,000 compounds, of which about 2,200 (0.71%) showed an effect of 50% or more. Effects have a minus sign here. Some of the results follow.", "data": [{"target": "human ether-à-go-go-related gene (hERG) potassium channel (human, UniProt Q12809)", "sequence (Q12809 whole entry, looked up)": "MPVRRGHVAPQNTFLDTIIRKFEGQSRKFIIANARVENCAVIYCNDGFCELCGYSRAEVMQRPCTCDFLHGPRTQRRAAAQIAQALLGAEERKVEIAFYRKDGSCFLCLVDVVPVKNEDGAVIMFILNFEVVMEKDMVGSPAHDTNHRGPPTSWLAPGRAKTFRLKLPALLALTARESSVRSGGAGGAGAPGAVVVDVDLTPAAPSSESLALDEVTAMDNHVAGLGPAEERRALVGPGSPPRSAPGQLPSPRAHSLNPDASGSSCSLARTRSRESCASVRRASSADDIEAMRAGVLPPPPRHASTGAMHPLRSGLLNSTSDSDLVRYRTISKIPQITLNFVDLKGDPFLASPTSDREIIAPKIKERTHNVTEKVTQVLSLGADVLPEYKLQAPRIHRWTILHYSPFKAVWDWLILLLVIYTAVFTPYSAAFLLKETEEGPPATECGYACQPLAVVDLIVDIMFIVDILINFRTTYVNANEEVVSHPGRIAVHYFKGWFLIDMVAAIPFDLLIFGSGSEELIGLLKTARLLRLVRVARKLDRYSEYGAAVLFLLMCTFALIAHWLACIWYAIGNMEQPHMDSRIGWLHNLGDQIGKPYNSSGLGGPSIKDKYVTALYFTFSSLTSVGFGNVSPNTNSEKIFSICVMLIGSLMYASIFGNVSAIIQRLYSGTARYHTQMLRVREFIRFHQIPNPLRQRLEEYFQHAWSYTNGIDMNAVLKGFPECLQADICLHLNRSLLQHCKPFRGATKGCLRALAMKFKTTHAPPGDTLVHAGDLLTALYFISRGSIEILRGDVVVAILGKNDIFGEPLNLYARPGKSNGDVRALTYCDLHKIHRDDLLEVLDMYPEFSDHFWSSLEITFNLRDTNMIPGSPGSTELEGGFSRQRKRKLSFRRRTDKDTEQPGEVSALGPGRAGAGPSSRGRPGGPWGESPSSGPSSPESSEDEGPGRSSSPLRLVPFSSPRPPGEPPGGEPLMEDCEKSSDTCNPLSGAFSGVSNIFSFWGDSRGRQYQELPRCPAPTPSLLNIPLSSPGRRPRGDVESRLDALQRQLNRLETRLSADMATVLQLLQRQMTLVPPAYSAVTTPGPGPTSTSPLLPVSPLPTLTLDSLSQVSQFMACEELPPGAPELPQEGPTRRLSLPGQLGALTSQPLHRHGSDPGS", "assay": "primary screen, population patch clamp on CHO cells stably expressing hERG", "units": {"hERG current change (%, negative = inhibition) at 1uM": "%"}, "values": [{"smiles": "CC1CC(C)CN(C(=O)CCNC(=O)c2ccccc2Cl)C1", "note": "(stereo not shown)", "hERG current change (%, negative = inhibition) at 1uM": 4.67}, {"smiles": "CCc1nnc(NC(=O)CSc2nc3cc(OC)ccc3cc2C)s1", "hERG current change (%, negative = inhibition) at 1uM": 5.79}, {"smiles": "COC(=O)c1ccc(OC(=O)c2ccc(OC)c(OC)c2)c(OC)c1", "hERG current change (%, negative = inhibition) at 1uM": 17.1}, {"smiles": "Cc1ccc(-n2ccn(CC(=O)NCCc3ccccc3)c(=O)c2=O)cc1C", "hERG current change (%, negative = inhibition) at 1uM": 7.22}, {"smiles": "Cc1ccc(C(=O)CN2C(=O)NC3(CCc4ccccc43)C2=O)c(C)c1", "note": "(stereo not shown)", "hERG current change (%, negative = inhibition) at 1uM": 3.35}, {"smiles": "COc1ccc(C(C)=O)cc1CS(=O)(=O)CC(=O)NCCc1c[nH]c2ccccc12", "hERG current change (%, negative = inhibition) at 1uM": 2.65}, {"smiles": "O=C(O)c1ccc(COc2ccccc2/C=C2\\NC(=O)N(Cc3ccc(F)cc3)C2=O)cc1", "hERG current change (%, negative = inhibition) at 1uM": 15.6}, {"smiles": "COc1ccccc1C(=O)Nc1c(C(=O)N(CCN(C)C)Cc2ccco2)oc2ccccc12", "hERG current change (%, negative = inhibition) at 1uM": -27.4}, {"smiles": "O=C1CC(N2CCN(c3cccc(C(F)(F)F)c3)CC2)C(=O)N1c1ccccc1", "note": "(stereo not shown)", "hERG current change (%, negative = inhibition) at 1uM": 20.4}, {"smiles": "CC(=O)Nc1ccc(OCC(O)CN2CCN(c3ccc(C)c(Cl)c3)CC2)cc1", "note": "(stereo not shown)", "hERG current change (%, negative = inhibition) at 1uM": -2.33}, {"smiles": "O=C(NC1CC1)C1=C[C@H](c2ccc(C(F)(F)F)cc2)C[C@H](OCc2ccc(CO)cc2)O1", "hERG current change (%, negative = inhibition) at 1uM": 9.86}, {"smiles": "NS(=O)(=O)c1ccc(CCNC(=O)C(=O)NCC2OCCN2S(=O)(=O)c2ccc(F)cc2)cc1", "note": "(stereo not shown)", "hERG current change (%, negative = inhibition) at 1uM": 22.2}, {"smiles": "COc1ccc(CC(=O)Nc2sc3c(c2C(N)=O)CCCC3)cc1OC", "hERG current change (%, negative = inhibition) at 1uM": 10.7}, {"smiles": "O=C1/C(=C/c2cccs2)Cc2ccccc21", "hERG current change (%, negative = inhibition) at 1uM": 13.1}, {"smiles": "CSCC[C@H](N)C(=O)N1CCC(C(=O)N[C@H](C)C(=O)Nc2ccc(C(C)C)cc2)CC1", "hERG current change (%, negative = inhibition) at 1uM": 16.3}, {"smiles": "COc1cc(/C=C2\\SC(=Nc3ccc(O)cc3)NC2=O)cc(OC)c1O", "hERG current change (%, negative = inhibition) at 1uM": 0.574}, {"smiles": "O=C(c1nsc(Cl)c1Cl)N1CCCCC1", "hERG current change (%, negative = inhibition) at 1uM": 4.93}, {"smiles": "Cc1ccc(C)c(S(=O)(=O)N2CCN(C(=O)c3n[nH]c(=O)c4ccccc34)CC2)c1", "hERG current change (%, negative = inhibition) at 1uM": 4.79}, {"smiles": "COc1cc(CNCc2ccccn2)ccc1OCC(=O)NC1CCCCC1.Cl", "hERG current change (%, negative = inhibition) at 1uM": 10.1}, {"smiles": "O.O=c1c(=O)n(O)c2ccccc2n1O", "hERG current change (%, negative = inhibition) at 1uM": 6.07}, {"smiles": "COc1ccc(C(C)=O)cc1COC(=O)c1ccc(N)c([N+](=O)[O-])c1", "hERG current change (%, negative = inhibition) at 1uM": 25.3}, {"smiles": "CC(=O)N1CCN(S(=O)(=O)c2ccc(Cl)cc2F)CC1", "hERG current change (%, negative = inhibition) at 1uM": 11.1}, {"smiles": "COc1cccc(C(=O)/C=C/Nc2ccc(NC(C)=O)cc2)c1", "hERG current change (%, negative = inhibition) at 1uM": 6.76}, {"smiles": "COC(=O)c1cnc(SCc2ccc(C)cc2)n1C", "hERG current change (%, negative = inhibition) at 1uM": -6.36}, {"smiles": "CC(=O)Nc1cccc(/C(C)=N/NS(=O)(=O)c2ccc(C)cc2)c1", "hERG current change (%, negative = inhibition) at 1uM": 14.4}, {"smiles": "Cc1c(C(=O)N2CCOCC2)sc(NC(=O)C(C)C)c1C#N", "hERG current change (%, negative = inhibition) at 1uM": 16.1}, {"smiles": "Cc1nn(-c2ccccc2)c(C)c1-c1cc(C(=O)N/N=C/c2ccc(O)cc2)[nH]n1", "hERG current change (%, negative = inhibition) at 1uM": 12.2}, {"smiles": "S=c1[nH]nc(COc2ccc(Cl)cc2)n1C1CCCCC1", "hERG current change (%, negative = inhibition) at 1uM": 12.3}, {"smiles": "CCN1CCc2c(sc(NC(=O)c3ccc(S(=O)(=O)N(CC)c4ccccc4)cc3)c2C(N)=O)C1", "hERG current change (%, negative = inhibition) at 1uM": 9.48}, {"smiles": "COc1cccc(-n2nc3c(=S)[nH]nc(C)c3c2C)c1", "hERG current change (%, negative = inhibition) at 1uM": 13.7}, {"smiles": "Cc1ccc(/C=C/C(=O)Nc2cccnc2)o1", "hERG current change (%, negative = inhibition) at 1uM": -0.271}, {"smiles": "CC(C)CC(=O)NS(=O)(=O)c1ccc(NS(C)(=O)=O)cc1", "hERG current change (%, negative = inhibition) at 1uM": 9.38}, {"smiles": "CC(=O)C1=C(O)C(=O)N(c2ccc(O)cc2)C1c1ccc(Cl)cc1", "note": "(stereo not shown)", "hERG current change (%, negative = inhibition) at 1uM": 17.5}, {"smiles": "CCOC(=O)C1CCN(C(=S)Nc2cc(C)ccc2C)CC1", "hERG current change (%, negative = inhibition) at 1uM": 5.31}, {"smiles": "Cc1cccc2nc(-c3ccco3)c(Nc3ccc4c(c3)OCO4)n12", "hERG current change (%, negative = inhibition) at 1uM": 5.48}, {"smiles": "Fc1ccc2nc(C3CCN(Cc4nc(CC5CC5)no4)CC3)[nH]c2c1", "hERG current change (%, negative = inhibition) at 1uM": -22}, {"smiles": "CCC(C)OC(=O)C1=C(C)NC(=O)CC1c1ccccc1OC", "note": "(stereo not shown)", "hERG current change (%, negative = inhibition) at 1uM": 4.31}, {"smiles": "O=C(CSc1ccc(-c2cccc([N+](=O)[O-])c2)nn1)NCc1ccccc1", "hERG current change (%, negative = inhibition) at 1uM": 8.35}, {"smiles": "CCc1nnc(SCc2ccc([N+](=O)[O-])cc2)nc1CC", "hERG current change (%, negative = inhibition) at 1uM": -4.7}, {"smiles": "COc1ccc(/C=N/NC(=O)c2ccc(CSc3nncn3C)cc2)cc1OC", "hERG current change (%, negative = inhibition) at 1uM": 8.59}, {"smiles": "COCC(=O)N1CCN(c2cccc(Cl)c2)CC1", "hERG current change (%, negative = inhibition) at 1uM": 0.951}, {"smiles": "CCN(CC(=O)Nc1ccc(OC)c(Cl)c1)CC(=O)NC(C)C", "hERG current change (%, negative = inhibition) at 1uM": 6.63}, {"smiles": "CC(C)CCn1nnnc1CN1CCN(C(=O)c2ccco2)CC1.Cl", "hERG current change (%, negative = inhibition) at 1uM": 18.9}]}]}
